From PubChem BioAssay AID686978 (National Center for Advancing Translational Sciences (NCATS), 2013)
Several values for one entry are separate records, joined by “and”; a condition that tells them apart may be missing. Identical values can stand only once. Out of some 420,000 compounds screened, about 64,000 (15%) were called active. Inconclusive results, whose numbers are uncertain, are shown with a selection of clear calls. The call rests on the fitted dose curve; in most records, active means well fitted inhibition curve with a large enough effect; inconclusive means small, poorly fitted or top-dose-only effect; inactive means flat fitted curve, though single readings scatter. Potencies of inconclusive entries are left out as doubtful fits.

Assay: qHTS for Inhibitors of human tyrosyl-DNA phosphodiesterase 1 (TDP1): qHTS in cells in absence of CPT; further: nearly all actives have a fitted effect of over 55% in size
Details: DT40 Tdp1-/- hTDP1 cells, no CPT, ATP luminescence, 48 h; activity change, negative = growth inhibition: at 46.2 µM (top of the series)
In short: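 Stably hTDP1-transfected Tdp1-null chicken DT40 cells were treated with library compounds minus camptothecin and grown for at least 48 hr at 37 °C, after which cellular ATP was quantified by luminescence.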
On the % scale 0 is the no-effect control and ±100 the full control effect; potency means the concentration at half of the fitted maximal effect; tags describe the fitted curve by direction and shape.

Row | Structure (SMILES) | Potency | activity change, negative = growth inhibition
1 | COc1ccc(-c2csc(C(C)(NC(C)=O)c3ccc(OC)cc3)n2)cc1 (centres undefined) | inconclusive [inhibitor, single point] | –
2 | Cc1cccc(-c2nc(CSc3nc4c(c(=O)[nH]3)CCC4)c(C)o2)c1 | inconclusive [inhibitor, single point] | –
3 | Cc1cc(C)nc(SCC(=O)Nc2ccc(S(=O)(=O)N3CCCCC3)cc2)n1 | inconclusive [inhibitor, single point] | –
4 | N#Cc1nc(-c2ccccc2Cl)oc1N1CCN(C(=O)c2ccco2)CC1 | inactive | –
5 | COC(=O)c1c(Oc2ccc(C(C)=O)cc2)nnc(-c2ccccc2)c1-c1ccccc1 | inconclusive [inhibitor, single point] | –
6 | O=C(O)Cc1ccc(N=Cc2c(O)ccc3ccccc23)cc1 | inconclusive [inhibitor, single point] | –
7 | CCCc1c(C)c2ccc(O)c(CN3CCN(c4ccc(F)cc4)CC3)c2oc1=O | inconclusive [inhibitor, single point] | –
8 | Cc1ccc(CSc2nnc(-c3cccnc3)o2)cc1 | inconclusive [inhibitor, single point] | –
9 | CCc1ccccc1Oc1nc(NCc2ccccc2)nc2ccsc12 | inconclusive [inhibitor, single point] | –
10 | CC1=C(C(=O)N2CCN(c3cccc(C(F)(F)F)c3)CC2)C2(CCCCC2)OC1=O | inconclusive [inhibitor, single point] | –
11 | O=C(NN=Cc1ccccc1)C(Oc1ccccc1)c1ccccc1 (centres undefined) | inconclusive [inhibitor, single point] | –
12 | CCOc1ccc(-c2csc(NC(=O)C3CCCO3)n2)cc1 (centres undefined) | – | inconclusive: -36.2% [inhibitor]
13 | COc1ccc(OCC(=O)N2CCN(C(=O)COc3ccccc3)CC2)cc1 | inactive | –
14 | CCOC(=O)c1ccc(NC(=S)NNC(C)(C)C)cc1 | active: 5.8 µM | –
15 | CCOC(=O)c1ccccc1NC(=O)c1cc2c(=O)oc3ccc(C)cc3c2s1 | inactive | –
16 | Oc1cccnc1CN1CCOCC1 | inactive | –
17 | Cc1ccc(NC(=O)Cn2cc3c(n2)CCCCC3)cc1 | inactive | –
18 | O=C1c2ccccc2-c2cc(Br)ccc2NC1O (centres undefined) | inconclusive [inhibitor, single point] | –
19 | COc1cc(Br)cc(/C=C/c2ccc3cccc(O)c3n2)c1OC | inconclusive [inhibitor, partial curve] | –
20 | C=C[C@@H]1c2c(F)cccc2N(S(=O)(=O)c2ccc(C)cc2)[C@H](c2ccc(OC(C)=O)cc2)C1(C#N)C#N | active: 20.6 µM | –
21 | Cn1c(=O)c2c(nc3n2CC(COc2ccccc2)O3)n(C)c1=O (centres undefined) | inconclusive [inhibitor, partial curve] | –
22 | N#Cc1c(SCC(=O)N2CCCCC2)nsc1SCC(=O)N1CCCCC1 | inconclusive [inhibitor, partial curve] | –
23 | Cc1ccc(S(=O)(=O)Nc2cccc(-c3cn4cccc(C)c4n3)c2)cc1 | inconclusive [inhibitor, single point] | –

Row | Structure (SMILES) | Potency | activity change, negative = growth inhibition
24 | COCc1cc(=O)[nH]c2cc(NC(=O)C(F)(F)F)c(C)cc12 | inactive | –
25 | COc1ccc(-n2ncc3c(=O)n(CC(=O)Nc4ccc5c(c4)OCCO5)cnc32)cc1 | – | inconclusive: -31.6% [inhibitor]
26 | COc1ccc(-c2nc(CN(CC3CCC(=O)N3)C(C)C)c(C)o2)c(C)c1C (centres undefined) | inconclusive [inhibitor, single point] | –
27 | CCOC(=O)c1noc2nc(C)n(CC(=O)Nc3ccccc3F)c(=O)c12 | inactive | –
28 | CC(NC(=O)CN(C)CC(=O)Nc1ccc(Cl)cc1)c1ccc(F)cc1 (centres undefined) | active: 18.4 µM | –
29 | COc1ccc(/C=C(/NC(=O)c2ccco2)C(=O)Nc2ccc(C(C)=O)cc2)cc1 | inactive | –
30 | Cc1ccc(NC(=O)CCCOc2ccccc2)cc1S(=O)(=O)N1CCOCC1 | inconclusive [inhibitor, partial curve] | –
31 | CC(C)n1c(CN(C)c2ccccc2)nc2ccccc21 | inconclusive [inhibitor, single point] | –
32 | O=C(/C=C/c1cccnc1)c1ccc([N+](=O)[O-])cc1 | inconclusive [inhibitor, partial curve, poor fit] | –
33 | CC(C)n1c(=N)c(C(=O)NCCc2ccccc2)cc2c(=O)n3ccccc3nc21 | inconclusive [inhibitor, partial curve, poor fit] | –
34 | CCc1ccc(C2CC(=O)Nc3cc4c(cc32)OCO4)cc1 (centres undefined) | inconclusive [inhibitor, partial curve] | –
35 | CCN(CC)CCNC(=O)c1ccc(NC(=O)CC(NC(=O)c2ccccc2Cl)c2ccccc2)cc1 (centres undefined) | inactive | –
36 | COCCn1c(COc2cccc(OC)c2)nnc1SCC(=O)NC1CCCCC1 | inconclusive [inhibitor, partial curve] | –
37 | CCCCCCCCN1C(=O)[C@H](CC(=O)N2CCCC2)C[C@@]2(C(=O)OC)CC(C)(C)CC=C12 | inconclusive [inhibitor, partial curve] | –
38 | CN(Cc1cccnc1)C(=O)c1cc(COc2ccc3ncccc3c2)on1 | active: 8.2 µM | –
39 | Cc1cccc(N2CCN(C(=O)c3c(C)oc4ncnc(N5CCCCC5)c34)CC2)c1C | active: 8.2 µM | –
40 | Cc1cc(C)cc(N(CC(=O)N/N=C/c2ccncc2)S(=O)(=O)c2ccccc2)c1 | inactive | –
41 | Cc1ccc(C(=O)COc2nc(C)nc3ccccc23)cc1 | inactive | –
42 | CCOC(=O)C1CCN(C(=O)C2CCN(c3nc4ccc(OC)cc4s3)CC2)CC1 | active: 16.4 µM | –
43 | COc1ccc(S(=O)(=O)n2ccnc2)cc1C(C)(C)C | inactive | –
44 | Cc1ccc2nc3c(c(C(=O)OCC(=O)N(C)C4CCS(=O)(=O)C4)c2c1)CCCC3 (centres undefined) | inconclusive [inhibitor, partial curve] | –
45 | O=C1CCCCCN1C(=O)c1ccc(C(=O)N2CCCCCC2=O)cc1 | inactive | –
46 | O=C(CNC(=O)c1ccc(Cl)cc1)OCCN1C(=O)c2ccccc2C1=O | inconclusive [inhibitor, single point] | –

Row | Structure (SMILES) | Potency | activity change, negative = growth inhibition
47 | COc1ccc2cc(C(N)=O)/c(=N\NC(=O)c3ccccc3)oc2c1 | inconclusive [inhibitor, partial curve] | –
48 | Cc1ccccc1CCNC(=O)c1ccc2c(c1)c(C)c(C)n2Cc1ccccc1 | inconclusive [inhibitor, single point] | –
49 | Cc1nn(-c2ccccn2)c2c1C(=O)C(Br)CC2 (centres undefined) | active: 3.66 µM | –
50 | C=CCn1c(SCC(=O)c2ccc(OC)cc2)nnc1-c1cc2cccc(OC)c2o1 | inconclusive [inhibitor, partial curve] | –
51 | CCOc1ccc(CNC(=O)CSc2nnc(C)c3c(C)n(-c4ccccc4)nc23)cc1 | inconclusive [inhibitor, single point] | –
52 | CCCc1cc(C(=O)NNC(=S)NCC)c2ccccc2n1 | inconclusive [inhibitor, single point] | –
53 | CN(C)c1ccc(/C=C2\SC(=O)N(CC(O)Cn3c4ccccc4c4ccccc43)C2=O)cc1 (centres undefined) | inconclusive [inhibitor, partial curve] | –
54 | CC(C)C1Oc2ccccc2N(CC(=O)N(Cc2ccccn2)CC2CCCO2)C1=O (centres undefined) | inconclusive [inhibitor, single point] | –
55 | O=C1OCCN1C(=O)[C@H]1[C@H](c2ccccc2)C(c2cccc(Cl)c2)=NN1c1ccccc1 | inactive | –
56 | COc1ccc(OC)c2sc(N3CCN(C(=O)C4CC4)CC3)nc12 | inconclusive [inhibitor, single point] | –
57 | COc1ccc(N2CCN(C(=O)COC(=O)CNC(=O)c3cccc(OC(F)F)c3)CC2)cc1 | inactive | –
58 | CS(=O)(=O)CC(=O)Nc1ccc2nc3n(c(=O)c2c1)CCCCC3 | inactive | –
59 | NC(=NC1C2CC3CC(C2)CC1C3)Nc1ccc(I)cc1 (centres undefined) | active: 3.76 µM and active: 5.17 µM and active: 3.66 µM | –
60 | COCCCn1c(=O)/c(=C\c2ccc(OC(F)F)c(OC)c2)s/c1=C(/C#N)C(N)=O | inconclusive [inhibitor, partial curve, poor fit] | –
61 | COc1ccc(N2CCN(Cc3nc(-c4ccc(Cl)cc4Cl)no3)CC2)cc1 | inconclusive [inhibitor, single point] | –
62 | Cc1ccc(OCC(=O)N(c2ccccn2)C2CCCCC2)c(C)c1 | inconclusive [inhibitor, partial curve, poor fit] | –
63 | Cc1cc2cc(CNC(=O)C(C)Oc3ccccc3)ccc2n1C (centres undefined) | inconclusive [inhibitor, single point] | –
64 | Cc1cc(C(F)F)n2ncc(C(=O)NCc3ccccc3C(F)(F)F)c2n1 | inconclusive [inhibitor, single point] | –
65 | CCC(C)C(N)C(=O)N1CCCC1C(=O)NC(C(=O)O)C(C)CC (centres undefined) | inactive | –
66 | CCCCOc1ccc(/C=C(\C(=O)O)c2ccc(S(=O)(=O)N3CCCC3)s2)cc1 | inconclusive [inhibitor, single point] | –
67 | CCOc1ccc(NC(=O)CC2C(=O)OCCN2CC)cc1 (centres undefined) | inconclusive [inhibitor, single point] | –
68 | CCc1cccc(OCCCn2ccnc2)c1 | inconclusive [inhibitor, single point] | –
69 | CC(C)(C)c1cc(NC(=O)Nc2ccc(Cl)cc2Cl)no1 | inconclusive [inhibitor, single point] | –
